No constants are given. Whether binding was seen depends on the method and setting. Binding seen in cells or lysates may run through a third protein. Some results given as binding are weak or reduced against the parent protein; the word gives no strength. Tags and fused reporters may be left off the sequences shown.
Legend:
[1] = molecular target: T1, 3XFLAG::PAT-2 (HEK293T) (C. elegans) (UniProt P34446); test: co-IP; FLAG-tagged receptor on transfected HEK293T cells incubated with 10x concentrated conditioned medium holding the HA- and Gaussia luciferase-tagged ligand, 4 hours at 4°C; cells lysed in TNTE buffer (0.5% Triton X-100), anti-FLAG immunoprecipitation, luciferase activity of the washed immunoprecipitate, normalised to receptor level
T1 sequence: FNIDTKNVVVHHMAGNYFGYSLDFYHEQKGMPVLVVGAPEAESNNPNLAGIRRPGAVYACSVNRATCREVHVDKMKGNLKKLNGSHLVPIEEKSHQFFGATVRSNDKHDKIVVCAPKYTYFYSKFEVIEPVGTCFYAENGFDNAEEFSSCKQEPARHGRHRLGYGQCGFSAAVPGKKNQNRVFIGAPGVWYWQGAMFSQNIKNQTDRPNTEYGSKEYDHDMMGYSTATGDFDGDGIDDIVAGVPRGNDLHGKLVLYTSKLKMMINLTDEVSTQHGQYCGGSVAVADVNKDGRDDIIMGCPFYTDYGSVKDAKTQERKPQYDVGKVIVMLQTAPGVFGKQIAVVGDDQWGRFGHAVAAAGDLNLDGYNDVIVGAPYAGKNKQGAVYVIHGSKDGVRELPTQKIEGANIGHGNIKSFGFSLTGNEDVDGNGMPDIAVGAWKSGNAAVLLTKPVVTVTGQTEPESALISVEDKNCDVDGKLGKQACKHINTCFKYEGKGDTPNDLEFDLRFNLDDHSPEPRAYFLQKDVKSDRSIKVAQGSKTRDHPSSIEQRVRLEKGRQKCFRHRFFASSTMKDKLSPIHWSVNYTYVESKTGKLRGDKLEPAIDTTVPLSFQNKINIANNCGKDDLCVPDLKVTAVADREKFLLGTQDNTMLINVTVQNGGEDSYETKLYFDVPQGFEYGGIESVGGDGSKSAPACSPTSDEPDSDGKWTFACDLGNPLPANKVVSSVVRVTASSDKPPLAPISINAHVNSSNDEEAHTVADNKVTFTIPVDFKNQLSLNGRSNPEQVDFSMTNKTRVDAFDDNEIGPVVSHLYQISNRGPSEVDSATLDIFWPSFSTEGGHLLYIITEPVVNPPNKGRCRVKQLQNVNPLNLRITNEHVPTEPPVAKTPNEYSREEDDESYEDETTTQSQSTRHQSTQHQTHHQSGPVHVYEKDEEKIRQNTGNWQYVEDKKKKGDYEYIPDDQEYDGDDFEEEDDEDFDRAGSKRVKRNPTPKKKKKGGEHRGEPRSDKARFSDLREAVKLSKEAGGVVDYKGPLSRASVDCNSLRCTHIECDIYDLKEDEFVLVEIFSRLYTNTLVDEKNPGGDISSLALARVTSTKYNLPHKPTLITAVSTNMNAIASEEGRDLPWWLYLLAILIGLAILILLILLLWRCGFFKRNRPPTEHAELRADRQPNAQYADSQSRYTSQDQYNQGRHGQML

[2] = molecular target: T2, SAX-3::3XFLAG (HEK293T) (C. elegans) (UniProt G5EBF1); test: as above
T2 sequence: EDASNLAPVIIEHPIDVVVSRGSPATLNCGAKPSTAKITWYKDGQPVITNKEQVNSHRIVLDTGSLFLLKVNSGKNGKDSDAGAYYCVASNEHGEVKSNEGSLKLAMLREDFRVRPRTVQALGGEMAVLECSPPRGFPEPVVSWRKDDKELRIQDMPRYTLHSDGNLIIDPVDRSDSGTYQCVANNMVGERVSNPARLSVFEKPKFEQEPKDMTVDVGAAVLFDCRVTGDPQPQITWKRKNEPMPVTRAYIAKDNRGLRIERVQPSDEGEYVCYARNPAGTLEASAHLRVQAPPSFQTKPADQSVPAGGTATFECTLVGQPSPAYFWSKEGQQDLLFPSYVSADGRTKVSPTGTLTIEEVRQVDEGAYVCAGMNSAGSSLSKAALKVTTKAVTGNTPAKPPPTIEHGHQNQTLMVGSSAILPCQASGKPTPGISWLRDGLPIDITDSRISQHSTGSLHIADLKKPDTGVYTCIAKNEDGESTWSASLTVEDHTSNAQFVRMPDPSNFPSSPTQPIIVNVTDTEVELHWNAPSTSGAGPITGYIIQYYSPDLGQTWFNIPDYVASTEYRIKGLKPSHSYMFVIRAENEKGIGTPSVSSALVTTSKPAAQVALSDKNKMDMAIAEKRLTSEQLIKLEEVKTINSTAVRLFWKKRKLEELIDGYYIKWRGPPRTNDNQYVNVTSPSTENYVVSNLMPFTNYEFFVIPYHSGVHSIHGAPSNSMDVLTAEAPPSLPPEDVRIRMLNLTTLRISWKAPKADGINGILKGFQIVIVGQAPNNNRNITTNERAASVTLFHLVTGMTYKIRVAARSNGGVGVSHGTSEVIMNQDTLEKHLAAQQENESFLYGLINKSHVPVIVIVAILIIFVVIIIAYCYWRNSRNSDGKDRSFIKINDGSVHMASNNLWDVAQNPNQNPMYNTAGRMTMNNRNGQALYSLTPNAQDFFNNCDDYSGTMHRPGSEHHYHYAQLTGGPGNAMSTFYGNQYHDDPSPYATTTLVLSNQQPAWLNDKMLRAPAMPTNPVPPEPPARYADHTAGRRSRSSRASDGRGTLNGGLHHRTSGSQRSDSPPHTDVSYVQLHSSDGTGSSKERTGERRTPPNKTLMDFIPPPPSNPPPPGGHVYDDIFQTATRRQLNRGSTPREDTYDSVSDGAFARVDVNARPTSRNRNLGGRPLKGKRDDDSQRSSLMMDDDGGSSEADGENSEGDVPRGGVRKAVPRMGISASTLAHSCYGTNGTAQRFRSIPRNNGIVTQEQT

B1: HA::SLT-1::Gaussia luciferase (ligand, UniProt G5EFX6 17-1410)
chain: CPAECVCVDRTVSCVGQQLTEVPQNIPNDTIRLDLQDNEITKIGPNDFSSLMNLKALQLMDNQIVTIHNQSFSSLVFLQKLRLSRNRIRHLPDNVFQNNLKLTHLDLSENDITVVSDAQLQGPEFLEVLNLDKNHIFCLENNVISSWVSLEVLTLNGNRLTTFEEPSNARFRQLDLFNNPWNCDCRLRWMRKWLEKAEGQNKTVCATPLNLQGSSIEILQDKFMTCSGNRKRRYKKTCETAEICPLPCTCTGTTVDCRDSGLTYVPTNLPPSTTEIRLEQNQISSIPSHSFKNLKNLTRLDLSKNIITEIQPKAFLGLHNLHTLVLYGNNITDLKSDTFEGLGSLQLLLLNANQLTCIRRGTFDHVPKLSMLSLYDNDIKSISEVTFQNLTSLSTLHLAKNPLICDCNLQWLAQINLQKNIETSGARCEQPKRLRKKKFATLPPNKFKCKGSESFVSMYADSCFIDSICPTQCDCYGTTVDCNKRGLNTIPTSIPRFATQLLLSGNNISTVDLNSNIHVLENLEVLDLSNNHITFINDKSFEKLSKLRELRLNDNKLHHFSSMVLDEQSNLEILDLSGNNIQCFSSIFFNKATRIREIKVIGNDLLCDCRILPLMSWLRSNSSHSIDIPPCQQFQYSDNESDKQRCAAFPEETCSDDSNLCPPKCSCLDRVVRCSNKNLTSFPSRIPFDTTELYLDANYINEIPAHDLNRLYSLTKLDLSHNRLISLENNTFSNLTRLSTLIISYNKLRCLQPLAFNGLNALRILSLHGNDISFLPQSAFSNLTSITHIAVGSNSLYCDCNMAWFSKWIKSKFIEAGIARCEYPNTVSNQLLLTAQPYQFTCDSKVPTKLATKCDLCLNSPCKNNAICETTSSRKYTCNCTPGFYGVHCENQIDACYGSPCLNNATCKVAQAGRFNCYCNKGFEGDYCEKNIDDCVNSKCENGGKCVDLINSYRCDCPMEYEGKHCEDKLEYCTKKLNPCENNGKCIPINGSYSCMCSPGFTGNNCETNIDDCKNVECQNGGSCVDGILSYDCLCRPGYAGQYCEIPPMMDMEYQKTDACQQSACGQGECVASQNSSDFTCKCHEGFSGPSCDRQMSVGFKNPGAYLALDPLASDGTITMTLRTTSKIGILLYYGDDHFVSAELYDGRVKLVYYIGNFPASHMYSSVKVNDGLPHRISIRTSERKCFLQIDKNPVQIVENSGKSDQLITKGKEMLYIGGLPIEKSQDAKRRFHVKNSESLKGCISSITINEVPINLQQALENVNTEQSCSATVNFCAGIDCGNGKCTNNALSPKGYMCQCDSHFSGEHCDEKRIKCDKQKFRRHHIENECRSVDRIKIAECNGYCGGEQNCCTAVKKKQRKVKMICKNGTTKISTVHIIRQCQCEPTKSVLSEK
[1]
  binding: no binding
[2]
  binding: binds

Reference: publication PMC4133157
